Results published in US20220265842A1, “ANTI-CD40 ANTIBODY DRUG CONJUGATES” (priority 2017, published 2022).

B1: Example 28-conjugated (human) (n=2) (conjugate)
heavy: EVQLVESGGGLVKPGGSLRLSCAASGFTFSDYGMNWVRQAPGKGLEWIAYISSGRGNIYYADTVKGRFTISRDNAKNSLYLQMNSLRAEDTAVYYCARSWGYFDVWGQGTTVTVSSASTKGPSVFPLAPSSKSTSGGTAALGCLVKDYFPEPVTVSWNSGALTSGVHTFPAVLQSSGLYSLSSVVTVPSSSLGTQTYICNVNHKPSNTKVDKKVEPKSCDKTHTCPPCPAPEAAGGPSVFLFPPKPKDQLMISRTPEVTCVVVDVSHEDPEVKFNWYVDGVEVHNAKTKPREEQYNSTYRVVSVLTVLHQDWLNGKEYKCKVSNKALPAPIEKTISKAKGQPREPQVYTLPPSREEMTKNQVSLTCLVKGFYPSDIAVEWESNGQPENNYKTTPPVLDSDGSFFLYSKLTVDKSRWQQGNVFSCSVLHEALHNHYTQKSLSLSPGK
light: DIVMTQSPDSLAVSLGERATINCKSSQSLLNRGNQKNYLTWFQQKPGQPPKLLIYWASTRESGVPDRFSGSGSGTDFTLTISSLQAEDVAVYYCQNDYTYPLTFGQGTKLEIKRTVAAPSVFIFPPSDEQLKSGTASVVCLLNNFYPREAKVQWKVDNALQSGNSQESVTEQDSKDSTYSLSSTLTLSKADYEKHKVYACEVTHQGLSSPVTKSFNRGEC
B2: Example 12-hydrolyzed (human) (conjugate)
heavy: B1 heavy
light: B1 light
B3: Example 13-hydrolyzed (human) (conjugate)
heavy: B1 heavy
light: B1 light
B4: Example 28-conjugated (human) (n=4) (conjugate)
heavy: B1 heavy
light: B1 light

Assays:
[1] = system: HEK293 parental GRE (pGL4.36[luc2P/MMTV/Hygro]) cells; experiment: GRE reporter assay in parental cells without CD40; assay type: cell-based; conditions: anti-human CD40 ADCs; for HEK293 GRE EC50: 72 hours; for HEK293 GRE (% max): normalized to 100 nM dexamethasone
Method: In order to create a parental cell line, HEK293 cells were seeded onto a 6 well dish (Costar: 3516) with 2 mL of complete growth medium (RPMI, 10% FBS, 1% L-glutamine, 1% Na Pyruvate and 1% MEM NEAA) at 250,000 cells per well for 24 hours at 37° C., 5% CO2. The next day, 3 μg of pGL4.36[Luc2P/MMTV/Hygro] (Promega: E316) and 3 μl of PLUS reagent (Invitrogen: 10964-021) were diluted into 244 μL, Opti-MEM (Gibco: 31985-070) and incubated at room temperature for 15 minutes. The pGL4.36[luc2P/MMTV/Hygro] vector contains MMTV LTR (Murine Mammary Tumor Virus Long Terminal Repeat) that drives the transcription of the luciferase reporter gene luc2P in response to activation of several nuclear receptors such as glucocorticoid receptor and androgen receptor. After incubation, diluted DNA solution was pre-incubated with 1:1 Lipofectamine LTX solution (Invitrogen: 94756) (13.2 μl+256.8 μl Opti-MEM) and incubated at room temperature for 25 minutes to form DNA-Lipofectamine LTX complexes. After incubation, 500 μl of DNA-Lipofectamine complexes were added directly to the well containing cells. HEK293 cells were transfected for 24 hours at 37° C., 5% CO2. After incubation, cells were washed with 3 mL of phosphate buffer saline (PBS) and selected with complete growth medium containing 100 μg/mL of hygromycin B (Invitrogen: 10687-010) for two weeks. “HEK293 GRE pGL4.36[Luc2P/MMTV/Hygro]” cells were produced.
HEK293 parental GRE (pGL4.36[luc2P/MMTV/Hygro]) cells and HEK293 mCD40 or hCD40 GRE (pGL4.36[luc2P/MMTV/Hygro]) cells were plated onto 96 well tissue culture treated white plates (Costar: 3917) at 20,000 cells per well in 75 μL of assay medium (RPMI, 1% CSFBS, 1% L-glutamine, 1% Na Pyruvate and 1% MEAA) and incubated for 24h at 37° C., 5% CO2. The next day, cells were treated with 25 μL of 4× serial diluted murine or human anti-CD40 antibody drug conjugates in assay medium, steroid compound, or media alone and incubated for 72 hours at 37° C., 5% CO2. After 72 hours of incubation, cells were treated with 100 μL of Dual-Glo Luciferase Assay System (Promega-E2920) for 10 minutes and analyzed for luminescence using the Microbeta (PerkinElmer). Data were analyzed using a four parameter curve fit to generate EC50 values. Percent (%) maximum activation was normalized to 100 nM dexamethasone, which was considered maximum activation.

[2] = Size exclusion chromatography (SEC): monomer / aggregation of ADC; assay type: physicochemical; conditions: for % monomer: SEC, test articles of Table 17 (anti-human CD40 ADCs); for aggregation: purified DAR2 / DAR4 ADC fraction after AEC; for % monomer (SEC): test articles of Table 18
[3] = system: LPS and CD40L-stimulated human monocyte-derived DCs (MoDCs); experiment: LPS and CD40L-stimulated human MoDC cytokine release assay; assay type: cell-based; conditions: FIG. 2, IL-6 release

Molecule | HEK293 GRE EC50 [1] [µg/mL] | HEK293 GRE (% max) [1] [%] | % monomer [2] [%] | aggregation [2] [%] | % monomer (SEC) [2] [%] | maximum capacity to inhibit immune cell activation compared with parental antagonist antibody [3]
B1 | >50 | 82 | 100 | 0 | 100 | –
B2 | >17 | 117 | 98.2 | – | 98.2 | exceeds inhibition provided by the parental antagonist antibody
B3 | >50 | 27 | 99.8 | – | 99.8 | exceeds inhibition provided by the parental antagonist antibody
B4 | >50 | 64 | 100 | 0 | 100 | –
